Test results published in the antibiotic and cytotoxicity screens of Wong et al. (2023).
The list shows a part of the results.

Legend:
HSkMC = human skeletal muscle cells; experiment: cytotoxicity call (relative viability < 0.9); settings: 10 µM
HepG2 = experiment: cytotoxicity call (relative viability < 0.9); settings: 10 µM
S. aureus RN4220 = experiment: growth inhibition call (relative growth <= 0.2); settings: 50 µM

| Structure (SMILES) | cytotoxicity call (HSkMC) | cytotoxicity call (HepG2) | growth inhibition call (S. aureus RN4220) |
| --- | --- | --- | --- |
| C[C@@H]1CN([C@H](C)CO)C(=O)c2cc(NC(=O)Nc3cccc4ccccc34)ccc2O[C@H]1CN(C)CC1CCCCC1 | inactive | active | inactive |
| CNC[C@@H]1Oc2cc(C#CCN(C)C)ccc2S(=O)(=O)N([C@H](C)CO)C[C@H]1C | inactive | inactive | inactive |
| CC(C)(C)[S@@](=O)N1Cc2cc(C(=O)N[C@@H]3CCN(Cc4ccccc4)C3)nc(-c3cccc(-c4cccnc4)c3)c2[C@H]1CCO | inactive | inactive | inactive |
| Cc1noc(C)c1NC(=O)Nc1ccc2c(c1)C(=O)N([C@@H](C)CO)C[C@@H](C)[C@H](CN(C)C(=O)NC1CCCCC1)OCCCC[C@@H](C)O2 | inactive | inactive | inactive |
| C[C@H]1CN([C@@H](C)CO)C(=O)c2cc(NC(=O)Nc3ccccc3)ccc2O[C@H]1CN(C)CC1CCCCC1 | inactive | inactive | inactive |
| COC(=O)CN1C(=O)COc2ccc(C)cc21 | inactive | inactive | inactive |
| O=C(N[C@H]1CC[C@H](CCNS(=O)(=O)c2ccc(F)cc2)O[C@@H]1CO)C1CC1 | inactive | inactive | inactive |
| O=C(C[C@@H]1C/C=C/CCC(=O)O[C@H](c2ccccc2)CNC1=O)NCc1ccc(Cl)c(C(F)(F)F)c1 | inactive | inactive | inactive |
| COCC#Cc1ccc2c(c1)O[C@@H](CN(C)S(=O)(=O)c1ccc(F)cc1)[C@H](C)CN([C@H](C)CO)S2(=O)=O | inactive | inactive | inactive |
| Cc1ccc(S(=O)(=O)Nc2ccc3c(c2)C(=O)N([C@@H](C)CO)C[C@H](C)[C@H](CN(C)C(=O)Nc2c(C)noc2C)OCCCC[C@@H](C)O3)cc1 | inactive | inactive | inactive |
| CC(=O)N/C=C1\C(=O)N(C)C(=O)C(C#N)=C1C | inactive | inactive | inactive |
| C[C@@H]1CCCCO[C@H](CN(C)C(=O)CCC(F)(F)F)[C@H](C)CN([C@H](C)CO)C(=O)c2cc(NS(=O)(=O)c3ccccc3)ccc2O1 | inactive | inactive | inactive |
| C[C@H](CO)N1C[C@H](C)[C@@H](CN(C)S(=O)(=O)c2cn(C)cn2)OCCCC[C@H](C)Oc2ccc(NS(=O)(=O)c3ccccc3)cc2C1=O | inactive | inactive | inactive |
| Cc1ccc(S(=O)(=O)Nc2ccc3c(c2)C(=O)N([C@H](C)CO)C[C@@H](C)[C@@H](CN(C)C(=O)Nc2cccc4ccccc24)OCCCC[C@@H](C)O3)cc1 | inactive | inactive | inactive |
| C[C@@H]1CN([C@H](C)CO)C(=O)Cc2cc(NC(=O)CCCCCC(=O)Nc3ccccc3N)ccc2O[C@@H]1CN(C)Cc1ccc(Oc2ccccc2)cc1 | active | active | inactive |
| C[C@H]1CN([C@@H](C)CO)C(=O)c2cccc(NC(=O)C3CCCCC3)c2O[C@H]1CN(C)C(=O)Nc1cccc2ccccc12 | inactive | inactive | inactive |
| Cc1ccc(S(=O)(=O)N(C)C[C@@H]2OCCCC[C@H](C)Oc3ccc(NC(=O)NC4CCCCC4)cc3C(=O)N([C@H](C)CO)C[C@H]2C)cc1 | inactive | active | inactive |
| C[C@@H]1CN([C@@H](C)CO)C(=O)c2cccc(NS(C)(=O)=O)c2O[C@@H]1CN(C)S(=O)(=O)c1ccc(F)cc1 | inactive | inactive | inactive |
| CC(C)NC(=O)N(C)C[C@H]1Oc2ccc(NS(=O)(=O)c3cn(C)cn3)cc2C(=O)N([C@H](C)CO)C[C@H]1C | inactive | inactive | inactive |
| CSCCNc1nc(SCCC(F)(F)F)nc2c1ncn2[C@@H]1O[C@H](COP(=O)(O)OP(=O)(O)C(Cl)(Cl)P(=O)(O)O)[C@@H](O)[C@H]1O | inactive | inactive | inactive |
| O=C(C[C@@H]1C=C[C@H](NC(=O)c2cnccn2)[C@H](CO)O1)NCc1ccccc1F | inactive | inactive | inactive |
| C[C@H]1CN([C@@H](C)CO)C(=O)c2cc(NS(=O)(=O)c3ccc(Cl)cc3)ccc2O[C@@H]1CN(C)S(=O)(=O)c1cn(C)cn1 | inactive | inactive | inactive |
| C[C@@H]1CCCCO[C@H](CN(C)S(=O)(=O)c2cn(C)cn2)[C@@H](C)CN([C@@H](C)CO)C(=O)c2cc(N(C)C)ccc2O1 | inactive | inactive | inactive |
| C[C@H](CO)N1C[C@H](C)[C@H](CN(C)S(=O)(=O)c2cccc(F)c2)Oc2ncc(-c3cccc(C(=O)N(C)C)c3)cc2C1=O | inactive | inactive | inactive |
